Entries with a single value are a further part of the results.
Target: asialotransferrin (human) (UniProt P02787)
Test: neuraminidase-treated serum on M-LAC column, displacer fraction, extracted ion chromatogram of peptide …
[1] = transferrin peptide SEQ ID NO:3
[2] = transferrin peptide SEQ ID NO:9

Chain of UniProt P02787 (P02787 20-698 limits assumed): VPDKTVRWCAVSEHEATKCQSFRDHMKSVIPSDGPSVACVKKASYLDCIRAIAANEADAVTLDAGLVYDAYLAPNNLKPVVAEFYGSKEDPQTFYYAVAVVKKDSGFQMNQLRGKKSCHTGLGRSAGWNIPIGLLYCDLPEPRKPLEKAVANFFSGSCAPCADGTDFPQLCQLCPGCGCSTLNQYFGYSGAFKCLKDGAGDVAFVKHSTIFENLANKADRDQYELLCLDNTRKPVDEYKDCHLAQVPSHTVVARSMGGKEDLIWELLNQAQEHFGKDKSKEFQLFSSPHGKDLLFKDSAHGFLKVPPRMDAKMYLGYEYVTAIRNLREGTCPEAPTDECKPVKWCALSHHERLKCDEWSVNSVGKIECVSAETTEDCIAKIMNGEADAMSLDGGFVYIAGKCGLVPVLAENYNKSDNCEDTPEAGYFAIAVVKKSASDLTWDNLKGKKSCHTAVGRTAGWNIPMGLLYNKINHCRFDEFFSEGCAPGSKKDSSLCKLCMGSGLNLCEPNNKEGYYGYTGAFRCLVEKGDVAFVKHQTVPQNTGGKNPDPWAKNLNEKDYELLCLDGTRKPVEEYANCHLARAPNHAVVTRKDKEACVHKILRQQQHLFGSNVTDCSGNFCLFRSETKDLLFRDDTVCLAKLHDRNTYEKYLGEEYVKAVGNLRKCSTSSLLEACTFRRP

| Substance | peptide peak area in displacer fraction [1] | peptide peak area in displacer fraction [2] |
| --- | --- | --- |
| Concanavalin A (Con A), agarose-bound (from UniProt P02866 30-281) | 3.5e+07 counts | 1.1e+07 counts |
| wheat germ agglutinin (WGA), agarose-bound (from UniProt P10968 27-197) | 1.6e+06 counts | 0 counts |

From patent publication US20090166224A1
